Drawing on PMC10668032, this text covers binding signal for 172 sequences.

Some of the results follow. At the low end of the ranking the order means little.

The experiment addresses SIX1-Q177R homeodomain (UniProt Q15475). The experiment can be described thus: universal protein binding microarray. To be noted: Universal all-10-mer PBM (8x60K, AMADID 030236), 300 nM GST-tagged protein, Alexa Fluor 488 anti-GST; buffer, salt, pH and temperature not stated; high values mean tight binding; most listed sequences are background and not binding sites; double strand, one strand shown.
As to AGCGTTCG, the binding signal is -0.0283 E-score. Under AGCCTCGA stands -0.0475 E-score; under TCGGATCA, 0.0443 E-score.

With GAATCTAC, the binding signal was -0.0922 E-score. Under ATTTAAGC stands -0.224 E-score; under GGTTTGAA, 0.0446 E-score. The result for AGTTACAG reads -0.118 E-score. Under TCACTGAA stands -0.137 E-score; under GGAGCCCA, -0.16 E-score; under ATTGCCAA, -0.199 E-score.

Regarding GTGGCCTA, the binding signal is -0.146 E-score. Under CATGTGCA stands 0.007 E-score. Under ATAAGCCA stands -0.163 E-score. Under CAGAAATA stands -0.0113 E-score; under AAGGGATG, -0.167 E-score.

In the case of CGTAAGAG, the binding signal was -0.0443 E-score. Under AACATATG stands -0.133 E-score; under CGCGAGCA, -0.00612 E-score. Under CGGTGTCA stands 0.492 E-score; under CCTTATCG, -0.0802 E-score; under GAGCAACC, -0.137 E-score.

With AGTGAACG, the binding signal was -0.21 E-score. Under ACGCACGG stands 0.117 E-score; under CGGTTTCC, -0.0637 E-score; under TACATTGA, -0.11 E-score. Under CGGCTAGA stands -0.0594 E-score. Under GAAGGGAA stands -0.242 E-score. With AGTTCAGA, the binding signal was -0.021 E-score. The result for ACGTAGCT reads -0.154 E-score; that for CGAGGGAG, 0.0712 E-score. The result for TATCCCGA reads 0.0694 E-score; that for ACAAGGAA, -0.161 E-score. The result for ACCCTCAG reads 0.121 E-score; that for CTGCAAAC, -0.214 E-score; that for CCCGGACA, 0.233 E-score. In the case of AAGGTGTC, the binding signal stood at 0.471 E-score. The result for ATCCGCTC reads 0.068 E-score; that for AATAGGGG, 0.171 E-score; that for CCGGGGGA, 0.137 E-score.

With ATGATGGG, the binding signal was -0.0686 E-score. The result for AGAACAGC reads -0.289 E-score; that for GCTGCAGC, -0.137 E-score. Under CTTGTTAC stands -0.0992 E-score; under ACCCTTTA, 0.119 E-score; under ACCTGGGG, 0.21 E-score. Turning to CGATCAAA, the binding signal was -0.234 E-score.

Consider ATATGCTC, for which the binding signal is -0.244 E-score. The result for AGGGAGGG reads 0.142 E-score; that for ACAACCGG, -0.0624 E-score. As for CAAATACG, the binding signal was -0.143 E-score. The result for AAGCTCGC reads -0.12 E-score.

With GCAAACAC, the binding signal is 0.351 E-score. Regarding CACTCTCG, the binding signal was determined as 0.288 E-score. The result for AAGATGAA reads 0.0107 E-score; that for ACAGGGCC, -0.298 E-score. Under GCATCGAA stands -0.00262 E-score; under GATTACTA, -0.105 E-score; under CCGTCCAC, 0.00352 E-score.

Turning to AGAGAGAG, the binding signal is -0.0365 E-score. Consider AACCCCTA, for which the binding signal came to 0.157 E-score. Under CGACAGAA stands -0.0545 E-score; under TCCGGAAA, -0.132 E-score. Under ATTTCATG stands -0.27 E-score; under CTTTGGGC, -0.104 E-score. Under CTACAGAC stands -0.222 E-score; under TGAGTAAA, -0.0513 E-score; under CTCTTCTC, -0.163 E-score.

Regarding ACCGGACA, the binding signal was determined as 0.245 E-score. On to ACAGAGTC, for which the binding signal was 0.0365 E-score. With GAAGCCCC, the binding signal was -0.166 E-score. The result for GTATTCCA reads 0.00732 E-score; that for ATGACCAG, -0.167 E-score. The result for CCCGATAA reads 0.0899 E-score. As for AACCTCAA, the binding signal is -0.0335 E-score. The result for GATGAGGA reads -0.0261 E-score; that for ATAGGCTC, -0.225 E-score. The result for CGAATATA reads -0.0667 E-score; that for GCGCAAGC, -0.0247 E-score. Under GAGTGCCC stands -0.024 E-score; under CGTGAACC, 0.17 E-score. ACGTACAC: the binding signal is 0.436 E-score. With AATTTTAA, the binding signal is -0.191 E-score. Under CCGCTTCC stands -0.189 E-score; under ATGCAAGG, -0.252 E-score; under TAACGTTA, -0.191 E-score. Under CATAGGCG stands -0.0895 E-score; under TCCATGAA, -0.0712 E-score.

As to AGTGGCAC, the binding signal amounted to 0.0681 E-score.

Regarding ACAACCAG, the binding signal was 0.0624 E-score. The result for TAGCTTAA reads -0.25 E-score; that for GCTGTACC, 0.00878 E-score. Under AGACACAC stands 0.316 E-score; under ATCGCAAT, -0.195 E-score; under AATGTAGA, -0.21 E-score. Consider AGCACAGA, for which the binding signal came to 0.00244 E-score. Under GTGCGAAA stands -0.013 E-score; under TAAAATGA, -0.151 E-score; under ACCGCCCT, 0.113 E-score. The result for AGCCTGAT reads -0.129 E-score. ATAGCTAT: the binding signal is -0.293 E-score.

CAAGGAGG: the binding signal worked out at 0.0012 E-score.

In the case of GCGAAGCA, the binding signal was -0.19 E-score. Under ACTCGATC stands 0.0238 E-score. Under AGAACATA stands -0.0962 E-score; under AACCGAGG, -0.147 E-score; under AACCAAAT, -0.0361 E-score. The result for CACGTAGG reads 0.0637 E-score. As to ACCCGGTC, the binding signal is 0.0193 E-score. Take CGATAATA: the binding signal was 0.0968 E-score. The result for CATGCGGC reads -0.145 E-score. The result for ACTGGATA reads 0.103 E-score. The result for ATGCCCAC reads -0.195 E-score; that for GTCTCATA, 0.179 E-score.

Take GACGCATC: the binding signal is -0.115 E-score. The result for CAAGTGGG reads 0.103 E-score; that for CCCATTAG, -0.145 E-score.

For the sequence GTCCAAAA, the binding signal is -0.0889 E-score. The result for CAATTATC reads -0.145 E-score; that for CAGGCCCG, -0.0999 E-score. Under AAGTTAAA stands -0.0614 E-score. For CACTAGAC, the binding signal was determined as 0.163 E-score. The result for CTCAGTTC reads -0.243 E-score; that for GAGTCGGA, -0.0488 E-score.

Regarding ACTATATG, the binding signal is -0.247 E-score.

In the case of CGCGTTTA, the binding signal was -0.0709 E-score.

Turning to ATTACTCC, the binding signal is 0.287 E-score.

For AGTGGGAC, the binding signal was found to be 0.153 E-score. For ATGCCAGC, the binding signal was -0.102 E-score.

Take CAGCGCTC: the binding signal was -0.389 E-score. Under GTATTCAC stands 0.0614 E-score; under CATGATAA, -0.244 E-score; under AACGGTGT, 0.467 E-score. The result for CTGGCCTA reads -0.192 E-score. With AGCCTTTC, the binding signal was -0.341 E-score. Under CTTAGAGA stands -0.127 E-score; under CAGGCAGC, -0.0424 E-score; under AACTTGAA, -0.0716 E-score.

As to CCCAGGAG, the binding signal was -0.00178 E-score.

With ACATTGGA, the binding signal was found to be 0.0449 E-score.

ACTTTTGG: the binding signal amounted to 0.00594 E-score. The result for ACCATATG reads 0.0129 E-score; that for GTTATGCA, 0.0373 E-score; that for ACCAAAGT, -0.00033 E-score. Under CGGTTGTC stands -0.0171 E-score. As to ATACATAA, the binding signal is -0.118 E-score. The result for CTCATGGA reads -0.0207 E-score; that for GCCCTGAC, 0.114 E-score. Under GGAGCTTA stands 0.0998 E-score.

Take ACTGCTGA: the binding signal is -0.00435 E-score.

Regarding ATTCCAAT, the binding signal was -0.135 E-score. Under ACGAGGCC stands -0.201 E-score. In the case of CAAGATGC, the binding signal is 0.0677 E-score.

Take ACAAGGTG: the binding signal is 0.264 E-score. The result for AAGACACT reads 0.374 E-score; that for GGTGAGCA, -0.0354 E-score; that for AAGTGTGC, 0.125 E-score. The result for ACTGTGTG reads 0.177 E-score; that for CAAGAACC, -0.142 E-score; that for CCAGAGGA, 0.0751 E-score. As to AGTACCTA, the binding signal worked out at 0.114 E-score.

CGGATCCG: the binding signal came to 0.183 E-score. The result for GGATTGCC reads -0.304 E-score; that for GTACTGTA, -0.0449 E-score; that for AAATCCGC, -0.00134 E-score.

Regarding CACCTCTC, the binding signal is 0.121 E-score. Under ACTCTCGG stands 0.111 E-score; under TCAACGCA, -0.215 E-score; under TAAGTGGA, -0.0829 E-score.

With GATAAGGA, the binding signal is -0.0321 E-score. Under CCGCTAAC stands -0.0946 E-score; under AAAGTGTT, 0.285 E-score; under GCCTGACC, 0.0079 E-score.
